According to PubChem BioAssay AID1346428 (National Center for Advancing Translational Sciences (NCATS), 2018):
Several values for one entry are separate records, joined by “and”; a condition that tells them apart may be missing. Equal entries are not always repeated. Among all 48,000 compounds or so, about 1,200 (2.5%) were called active. About 2% were inconclusive and are not listed.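 How the source made its calls: active means activation of at least 60% and not above a set upper limit (about 1 call in 100 departs from these limits); inconclusive means activation of 40% to 60%, or above that upper limit; inactive means activation under 40%.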 The list shows a part of the results. Where a structure was tested more than once in an assay, its records may differ in their call.

target: Probable G-protein coupled receptor 32 (Homo sapiens) (UniProt O75388); assay: qHTS for Agonists of Human Resolvin D1 Receptor DRV1; conditions: CHO-K1 GPR32 beta-arrestin PathHunter luminescence, 90 min; at 76.9 µM; stronger effect = higher value; zero percent set by DMSO-only wells; further: 0% is about no effect
Procedure, shortened: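 Step 1: seed CHO-K1 GPR32 beta-arrestin cells, 2,500/well, overnight at 37 °C. Step 2: add compounds, 90 min at 37 °C. Step 3: detection reagent, 1 h ambient, then luminescence.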

UniProt O75388, sequence (O75388 whole entry, looked up): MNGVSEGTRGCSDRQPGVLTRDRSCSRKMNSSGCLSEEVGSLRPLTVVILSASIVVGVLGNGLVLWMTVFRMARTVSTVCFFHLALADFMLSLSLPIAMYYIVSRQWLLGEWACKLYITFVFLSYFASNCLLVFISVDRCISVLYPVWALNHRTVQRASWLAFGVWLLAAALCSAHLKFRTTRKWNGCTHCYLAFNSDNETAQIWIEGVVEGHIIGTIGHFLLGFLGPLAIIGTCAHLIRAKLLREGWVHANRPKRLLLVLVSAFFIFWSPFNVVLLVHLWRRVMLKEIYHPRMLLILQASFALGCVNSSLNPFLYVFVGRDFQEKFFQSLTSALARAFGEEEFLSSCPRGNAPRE

activation, 75.1% (active) and -15.8% (inactive):
CCCCCCCC/C=C\CCCCCCCC(=O)NCc1ccc(O)c(OC)c1

activation, inactive:
Cc1ccccc1Cn1c2ccccc2c2cnn(CC(=O)NC3CCC(C)CC3)c(=O)c21 (stereo not drawn) -13.6%, Cc1ccc2nc(-c3ccc(NC(=O)c4ccc(S(C)(=O)=O)cc4)cc3)sc2c1 0.0922%, CCOC(=O)N1CCC2(CC1)OC(=O)C(C)=C2C(=O)NCc1cccc(F)c1 -4.62%, CCCN1CCN(c2ncnc3sc(C(=O)Nc4c(C)cc(C)cc4C)c(C)c23)CC1 -12.7%, Cc1cccc(NC(=O)CN2C(=O)c3cccc4cccc2c34)c1C 5.1%, CCc1ccc(C(=O)c2cn(CC(=O)Nc3ccc(OC)cc3)c3cc4c(cc3c2=O)OCO4)cc1 26.6%, CCC1CN(S(=O)(=O)c2cc(-c3onc(C)c3C)ccc2C)c2cc(Cl)ccc2O1 (stereo not drawn) -28.9%, NC(=O)C1(N2CCCCC2)CCN(C(=O)Nc2ccc(F)cc2F)CC1 -7.47%, NS(=O)(=O)c1ccc(NC(=O)C(=O)Nc2ccc3nc4n(c(=O)c3c2)CCCCC4)cc1 -0.473%, Cc1ccc(Cn2ccnc2SCC(=O)Nc2nc3ccccc3s2)cc1 -5.26%, C#CCOc1ccc(C2CC(=O)Nc3c2c(C)nn3-c2nc(C)cc(C)n2)cc1 (stereo not drawn) -3.34%, Cc1cccc(-n2ncc3c(N4CCCC(C)C4)ncnc32)c1 (stereo not drawn) 42.5%, Cc1cccc(C(=O)N2c3nc(-c4ccco4)nn3C3(CCCCC3)[C@@H]3CCCC[C@@H]32)c1 -20.4%, O=c1ccc(-c2ccccc2)nn1Cc1ccc(F)cc1Cl 9.21%, O=C1c2c(O)cc(O)cc2OC(c2ccc(O)c(O)c2)C1O (stereo not drawn) 0.299%, O=C(Nc1ccc(-c2nc3cc(NC(=O)c4ccccc4F)ccc3o2)cc1)c1ccccc1F 6.49%, COc1ccccc1C(=O)N1CCCCC1CCN1CCOCC1 (stereo not drawn) -9.4%, Cc1cccc(NC(=O)Cn2cc(C(=O)C3CCCCC3)c3ccccc32)c1C 7.29%, N#Cc1ccccc1NC(=O)CSc1ncn[nH]1 -2.14%, Cc1ccccc1CNC(=O)Cn1ccc2cc(S(=O)(=O)N3CCCCC3)ccc21 14.8%, COc1ccccc1NC(=O)c1sc2nc(C)c(C(=O)Nc3ccc(C)cc3C)c(-c3ccc(Br)cc3)c2c1N 7.63%, Cn1c(=O)c2c(nc(Oc3ccc(F)cc3)n2Cc2ccc(F)cc2)n(C)c1=O -1.39%
